Several values for one entry are separate records, joined by “and”; a condition that tells them apart may be missing. Equal values may be shown once. Screen size: about 270,000 compounds; about 620 (0.23%) were called active. The shares of active, inactive and inconclusive entries below differ from those in the screen. The call rests on the fitted dose curve; in most records, active means well fitted inhibition curve with a large enough effect in the polarisation, with a control signal flat (not every such curve was filed as active); inconclusive means small, poorly fitted or top-dose-only effect, or effect the other way, or a change in a side signal; inactive means no such curve, though single readings can be large or run the other way; the % refers to the polarisation. Where the call is inconclusive, the potency comes from a doubtful curve fit. “Side channel” marks fits to a control or component signal instead of the main read-out.
Biological target: Menin (Homo sapiens) (UniProt O00255)
Assay: qHTS Assay for Inhibitors Targeting the Menin-MLL Interaction in MLL Related Leukemias: Competition With Texas Red Labeled MLL-derived Mutant Peptide; on FP activity change, negative = inhibition: % of control where 0% means no effect
Conditions: fluorescence polarization; FP activity change, negative = inhibition: at 61.6 µM (top of the series)
Potency means the concentration at half of the fitted maximal effect; tags describe the fitted curve by direction and shape or compound fluorescence and quenching.

UniProt O00255, sequence (O00255 whole entry, looked up): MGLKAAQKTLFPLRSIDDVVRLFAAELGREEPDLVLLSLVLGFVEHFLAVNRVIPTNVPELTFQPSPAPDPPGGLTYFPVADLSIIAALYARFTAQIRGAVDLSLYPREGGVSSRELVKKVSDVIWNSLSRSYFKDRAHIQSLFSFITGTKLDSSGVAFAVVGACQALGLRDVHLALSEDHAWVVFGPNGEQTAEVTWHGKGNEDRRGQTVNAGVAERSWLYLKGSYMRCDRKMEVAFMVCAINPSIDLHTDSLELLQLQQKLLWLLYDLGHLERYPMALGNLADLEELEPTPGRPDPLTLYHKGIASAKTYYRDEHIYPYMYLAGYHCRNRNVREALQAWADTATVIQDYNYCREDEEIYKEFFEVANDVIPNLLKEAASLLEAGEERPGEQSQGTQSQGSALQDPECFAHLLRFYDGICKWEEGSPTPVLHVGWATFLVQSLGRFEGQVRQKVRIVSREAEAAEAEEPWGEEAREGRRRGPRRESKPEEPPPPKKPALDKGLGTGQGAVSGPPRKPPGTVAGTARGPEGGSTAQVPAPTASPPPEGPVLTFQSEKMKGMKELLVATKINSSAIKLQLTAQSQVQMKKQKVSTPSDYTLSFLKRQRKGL

| Structure (SMILES) | FP activity change, negative = inhibition | Potency |
| --- | --- | --- |
| CN1C(=O)C[C@H](C(=O)O)[C@@H]1c1cccnc1 | inactive: -5.9% | – |
| CC(=O)Nc1sc2c(c1C(N)=O)CCCC2 | – | inconclusive: 35.5 µM [inhibitor, single point] |
| COc1cc(C(C)=O)ccc1COc1ccc(C(=O)OCC(N)=O)cc1OC | – | inconclusive: 17.8 µM [inhibitor, partial curve] |
| CCCCCOC(=O)Nc1ccc(S(=O)(=O)Nn2cnnc2)cc1 | inactive: -6.61% | – |
| CC(C)CCNC(=O)c1c[nH]c2ccc(S(=O)(=O)N3CCOCC3)cc2c1=O | inactive: 6.1% | – |
| Cc1nnc(Sc2cc(NCCCO)c([N+](=O)[O-])c3nonc23)s1 | – | inconclusive: 28.2 µM [quencher, side channel, partial curve] |
| Cc1nc2ccccc2c2oc(C(=O)NCCCN3CCCC3=O)cc12 | – | inconclusive: 28.2 µM [inhibitor, single point] |
| O=C(CN1C(=O)c2ccccc2C1=O)Nc1ccccc1C(F)(F)F | – | inconclusive: 39.8 µM [fluorescent, side channel, single point] |
| COc1ccc(C(=O)Nc2nnc(-c3ccccc3)s2)cc1 | – | inconclusive: 39.8 µM [fluorescent, side channel, single point] |
| Cc1ccccc1NC(=O)CCC(=O)N/N=C/c1ccncc1 | – | inconclusive: 5.62 µM [quencher, side channel, partial curve] |
| Cc1ccc(S(=O)(=O)N(C)/N=C/c2ccc(N(C)C)cc2)cc1 | – | inconclusive: 25.1 µM [quencher, side channel, single point] |
| Cc1ccccc1NC(=O)C(=O)NNC(=O)COc1ccc2ccccc2c1 | – | inconclusive: 12.6 µM [quencher, side channel, partial curve] |
| O=C(Nc1ccc(NC(=O)c2ccc(Cl)c(S(=O)(=O)N3CCOCC3)c2)cc1)c1ccccc1 | inactive: 23.5% | – |
| CCN(CC)c1ccc(C2C(C(=O)OC(C)C)C(=O)CC(C)(O)C2C(=O)OC(C)C)cc1 (stereo not drawn) | – | inconclusive: 3.98 µM [fluorescent, side channel, partial curve] |
| O=C(Nc1ccccn1)C1CCN(c2ncnc3c2nc2n3CCCCC2)CC1 | – | inconclusive: 39.8 µM [inhibitor, single point] |
| N#C/C(=C/c1ccc(O)c([N+](=O)[O-])c1)C(=O)Nc1ccccc1 | – | inconclusive: 28.2 µM [quencher, side channel, partial curve] |
| CCCC/C=C/C(NC(=O)c1ccc(C(F)(F)F)cc1)c1ccccc1 (stereo not drawn) | inactive: 11.2% | – |
| CCCN1CCC(=O)N([C@H](CSc2ccccc2)Cc2ccccc2)CC1 | inactive: -13.6% | – |
| NC(=S)Cc1nc(-c2ccccc2)cs1 | – | inconclusive: 28.2 µM [quencher, side channel, single point] |

| Structure (SMILES) | FP activity change, negative = inhibition | Potency |
| --- | --- | --- |
| C=CCN(C(=O)c1ccc2snnc2c1)c1ccccc1 | – | inconclusive: 10 µM [inhibitor, single point] |
| O=C(O)c1cc(=O)c2c(OCC(O)COc3cccc4oc(C(=O)O)cc(=O)c34)cccc2o1 | – | inconclusive: 14.1 µM [inhibitor, single point] and inconclusive: 3.16 µM [inhibitor, full curve, poor fit] |
| O=c1c(O)c(-c2ccccc2)oc2cc(O)cc(O)c12 | – | inconclusive: 11.2 µM [quencher, side channel, partial curve] |
| COc1ccc(OC)c(N/C=C/C(=O)c2ccccc2)c1 | – | inconclusive: 22.4 µM [quencher, side channel, single point] |
| Cc1cccc(NC(=O)Cn2cnc3c(cnn3-c3ccc(F)cc3)c2=O)c1C | – | inconclusive: 35.5 µM [inhibitor, single point] |
| COc1ccc(C(=O)Nc2cccc(C)c2)cc1S(=O)(=O)N1CCOCC1 | – | inconclusive: 1.12 µM [inhibitor, full curve, poor fit] |
| CCCCC(=O)Nc1nc(C)c(-c2csc(Nc3ccccc3OC)n2)s1 | – | inconclusive: 10 µM [quencher, side channel, partial curve] |
| COc1ccc(/C=C2\SC(=S)N(NC(=O)c3csc4c3CCCC4)C2=O)cc1 | – | inconclusive: 12.6 µM [quencher, side channel, single point] |
| CCN(Cc1nc(-c2ccc(OC)c(OC)c2)no1)C(=O)c1ccoc1C | – | inconclusive: 39.8 µM [inhibitor, single point] |
| Cc1cc(NCCCN2CCOCC2)n2ncc(-c3ccccc3)c2n1 | – | inconclusive: 31.6 µM [quencher, side channel, single point] |
| O=C(CSc1ccccn1)Nc1ccc2c(c1)C(=O)c1ccccc1C2=O | – | inconclusive: 20 µM [quencher, side channel, partial curve] |
| Cc1ccc(C(=O)NCCOC23CC4CC(CC(C4)C2)C3)cc1 | – | inconclusive: 15.8 µM [fluorescent, side channel, partial curve] |
| O=C(NC1CCCCC1)C(=S)NCCc1ccccc1 | – | inconclusive: 39.8 µM [inhibitor, single point] |
| COc1cccc(NC(=S)/C(=C(\[O-])c2ccc([N+](=O)[O-])cc2)[n+]2ccccc2)c1 | – | inconclusive: 14.1 µM [quencher, side channel, partial curve] |
| CCOc1ccccc1NC(=O)c1cccc(NC(=O)CC(c2ccccc2)c2ccccc2)c1 | – | inconclusive: 39.8 µM [inhibitor, single point] |
| O=C(C1CCN(S(=O)(=O)c2cccc3cccnc23)CC1)N1CCN(C2CCCCC2)CC1 | – | inconclusive: 39.8 µM [inhibitor, single point] |
| O=c1[nH]c2cc(Br)cnc2nc1/C=C(\O)c1ccc(F)cc1 | – | inconclusive: 10 µM [quencher, side channel, partial curve] |
| N#CCCn1nc(-c2ccc(Br)cc2)cc1Nc1ccccc1NC(=O)C(F)(F)F | – | inconclusive: 31.6 µM [quencher, side channel, single point] |
| CCN1CCN(C(=O)Nc2cccc3ccccc23)CC1 | inactive: -2.36% | – |

Source: PubChem BioAssay AID1768 (National Center for Advancing Translational Sciences (NCATS), 2009)
